Results are given in words; binding and its absence hold for the method and conditions named. In cells and extracts the contact can be indirect. Some results given as binding are weak or reduced against the parent protein; the word gives no strength. For some assays here: Sequences can lack the tags named with a protein.
Key:
[1] = target: T1, KSHV ORF57, untagged (pcDNA-ORF57) (Kaposi's sarcoma-associated herpesvirus (KSHV)) (UniProt Q2HR75); test: co-IP; HEK293 extract with Myc-Flag-PACT or a deletion mutant mixed with lysate with untagged ORF57, RNase A/T1-digested; IP with polyclonal rabbit anti-ORF57 beads (Fig 6C)
T1 sequence: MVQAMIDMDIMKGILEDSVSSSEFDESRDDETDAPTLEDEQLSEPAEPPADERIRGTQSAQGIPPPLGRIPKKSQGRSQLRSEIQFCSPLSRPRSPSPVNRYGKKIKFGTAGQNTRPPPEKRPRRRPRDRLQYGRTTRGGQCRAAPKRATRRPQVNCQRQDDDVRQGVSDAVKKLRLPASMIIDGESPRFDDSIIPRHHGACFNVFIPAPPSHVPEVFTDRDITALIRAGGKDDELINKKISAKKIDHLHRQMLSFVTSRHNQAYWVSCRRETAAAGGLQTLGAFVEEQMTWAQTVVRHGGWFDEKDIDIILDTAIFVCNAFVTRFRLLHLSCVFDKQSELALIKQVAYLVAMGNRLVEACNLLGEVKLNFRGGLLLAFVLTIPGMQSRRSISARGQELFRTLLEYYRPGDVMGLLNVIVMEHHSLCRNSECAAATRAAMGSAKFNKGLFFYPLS

Chains of the proteins cited; added tags and fusions are not shown. Lines headed by an entry give the natural chain unless they say otherwise; changes in a name come on top. A line that says so, or that is headed by a name, gives the form on record, which may keep a tag or linker.
UniProt P19525: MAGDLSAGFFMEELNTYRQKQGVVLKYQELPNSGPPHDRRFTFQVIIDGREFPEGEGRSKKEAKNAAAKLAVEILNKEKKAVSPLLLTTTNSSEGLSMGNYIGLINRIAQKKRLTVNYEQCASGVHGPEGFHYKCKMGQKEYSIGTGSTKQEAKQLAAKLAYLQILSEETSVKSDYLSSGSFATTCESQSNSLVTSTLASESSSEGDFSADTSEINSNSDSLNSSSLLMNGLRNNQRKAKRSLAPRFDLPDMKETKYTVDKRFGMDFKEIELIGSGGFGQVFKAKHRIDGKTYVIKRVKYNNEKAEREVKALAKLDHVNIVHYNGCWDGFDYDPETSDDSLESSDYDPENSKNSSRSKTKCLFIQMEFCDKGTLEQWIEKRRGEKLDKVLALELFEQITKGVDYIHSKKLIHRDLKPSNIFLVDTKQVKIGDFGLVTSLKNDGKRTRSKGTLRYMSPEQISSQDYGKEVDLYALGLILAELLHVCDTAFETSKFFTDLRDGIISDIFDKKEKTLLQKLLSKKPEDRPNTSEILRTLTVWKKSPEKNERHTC
PKR ΔRBM-Myc-Flag (aa 1-12/153-551) (P19525, form named): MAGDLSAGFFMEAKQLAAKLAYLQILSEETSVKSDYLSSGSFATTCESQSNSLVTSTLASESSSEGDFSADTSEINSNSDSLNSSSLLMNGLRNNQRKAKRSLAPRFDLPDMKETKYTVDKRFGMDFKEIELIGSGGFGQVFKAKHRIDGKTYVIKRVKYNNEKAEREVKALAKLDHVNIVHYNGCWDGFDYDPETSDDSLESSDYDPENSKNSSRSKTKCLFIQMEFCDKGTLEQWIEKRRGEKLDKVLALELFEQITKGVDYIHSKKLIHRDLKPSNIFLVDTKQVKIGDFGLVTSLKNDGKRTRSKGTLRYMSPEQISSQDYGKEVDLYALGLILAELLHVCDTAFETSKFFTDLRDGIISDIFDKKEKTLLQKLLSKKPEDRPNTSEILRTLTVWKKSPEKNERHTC
UniProt Q04637: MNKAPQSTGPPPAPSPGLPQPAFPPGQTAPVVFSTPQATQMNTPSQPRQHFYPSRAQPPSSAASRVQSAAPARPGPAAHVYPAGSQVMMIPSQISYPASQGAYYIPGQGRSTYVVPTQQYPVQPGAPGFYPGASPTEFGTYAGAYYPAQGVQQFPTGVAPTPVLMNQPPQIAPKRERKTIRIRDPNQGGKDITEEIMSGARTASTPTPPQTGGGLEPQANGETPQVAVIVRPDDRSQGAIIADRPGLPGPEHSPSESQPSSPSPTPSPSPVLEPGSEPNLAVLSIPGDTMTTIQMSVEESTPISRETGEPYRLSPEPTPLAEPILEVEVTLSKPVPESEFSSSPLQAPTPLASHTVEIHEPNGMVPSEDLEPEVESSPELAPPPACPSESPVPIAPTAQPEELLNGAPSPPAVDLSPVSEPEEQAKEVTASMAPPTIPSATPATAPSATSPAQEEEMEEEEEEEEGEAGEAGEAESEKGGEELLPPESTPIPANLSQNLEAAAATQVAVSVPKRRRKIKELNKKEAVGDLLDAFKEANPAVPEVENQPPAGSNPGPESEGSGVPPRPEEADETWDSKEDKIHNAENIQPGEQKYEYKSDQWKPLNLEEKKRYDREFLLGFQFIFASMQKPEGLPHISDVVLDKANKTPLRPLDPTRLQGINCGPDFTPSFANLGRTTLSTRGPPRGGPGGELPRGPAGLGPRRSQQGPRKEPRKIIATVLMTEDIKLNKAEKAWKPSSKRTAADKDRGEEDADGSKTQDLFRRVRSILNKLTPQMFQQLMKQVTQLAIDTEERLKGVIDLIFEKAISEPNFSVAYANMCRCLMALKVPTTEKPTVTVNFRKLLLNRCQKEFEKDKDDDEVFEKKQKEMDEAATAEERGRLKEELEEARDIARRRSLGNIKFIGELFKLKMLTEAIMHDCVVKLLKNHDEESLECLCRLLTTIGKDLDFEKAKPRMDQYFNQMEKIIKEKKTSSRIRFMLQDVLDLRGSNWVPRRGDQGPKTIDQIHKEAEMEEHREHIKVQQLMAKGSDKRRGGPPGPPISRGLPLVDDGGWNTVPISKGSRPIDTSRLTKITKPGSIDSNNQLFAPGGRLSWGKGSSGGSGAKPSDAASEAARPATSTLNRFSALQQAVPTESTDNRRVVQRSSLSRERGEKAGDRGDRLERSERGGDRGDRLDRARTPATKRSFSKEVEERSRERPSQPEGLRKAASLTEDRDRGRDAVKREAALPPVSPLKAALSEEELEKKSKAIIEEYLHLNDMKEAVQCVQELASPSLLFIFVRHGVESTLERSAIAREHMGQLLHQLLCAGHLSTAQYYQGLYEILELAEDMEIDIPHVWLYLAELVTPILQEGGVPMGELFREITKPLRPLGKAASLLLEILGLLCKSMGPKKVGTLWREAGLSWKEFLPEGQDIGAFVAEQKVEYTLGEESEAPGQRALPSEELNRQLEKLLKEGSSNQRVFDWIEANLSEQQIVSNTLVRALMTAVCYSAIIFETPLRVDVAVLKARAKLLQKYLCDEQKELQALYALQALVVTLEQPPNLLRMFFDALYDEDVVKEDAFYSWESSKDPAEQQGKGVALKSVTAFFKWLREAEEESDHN
UniProt P11940: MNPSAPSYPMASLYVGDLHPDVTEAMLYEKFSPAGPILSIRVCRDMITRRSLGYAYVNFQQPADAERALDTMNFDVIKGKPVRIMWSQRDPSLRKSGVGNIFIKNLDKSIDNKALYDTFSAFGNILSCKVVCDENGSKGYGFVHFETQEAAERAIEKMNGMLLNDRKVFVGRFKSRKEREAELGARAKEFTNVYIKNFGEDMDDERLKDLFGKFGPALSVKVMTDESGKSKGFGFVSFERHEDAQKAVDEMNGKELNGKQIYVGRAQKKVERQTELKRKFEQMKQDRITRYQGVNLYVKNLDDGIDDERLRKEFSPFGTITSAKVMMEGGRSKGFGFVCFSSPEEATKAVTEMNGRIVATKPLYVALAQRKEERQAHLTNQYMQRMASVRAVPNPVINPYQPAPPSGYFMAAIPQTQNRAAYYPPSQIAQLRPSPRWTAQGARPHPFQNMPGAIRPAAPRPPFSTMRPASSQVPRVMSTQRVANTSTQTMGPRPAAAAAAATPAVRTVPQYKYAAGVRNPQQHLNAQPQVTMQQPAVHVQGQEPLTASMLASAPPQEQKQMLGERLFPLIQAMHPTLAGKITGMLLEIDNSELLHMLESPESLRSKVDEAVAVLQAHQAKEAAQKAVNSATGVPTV
UniProt P05198: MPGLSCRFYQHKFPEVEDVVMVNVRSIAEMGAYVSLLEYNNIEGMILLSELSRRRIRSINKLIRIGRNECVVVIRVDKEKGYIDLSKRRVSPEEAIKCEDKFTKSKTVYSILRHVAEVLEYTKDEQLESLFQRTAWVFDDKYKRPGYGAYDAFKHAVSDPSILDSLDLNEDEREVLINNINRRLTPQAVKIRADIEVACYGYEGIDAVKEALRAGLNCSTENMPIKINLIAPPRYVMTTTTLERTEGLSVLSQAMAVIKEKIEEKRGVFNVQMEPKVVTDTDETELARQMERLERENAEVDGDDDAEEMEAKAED
UniProt Q13283: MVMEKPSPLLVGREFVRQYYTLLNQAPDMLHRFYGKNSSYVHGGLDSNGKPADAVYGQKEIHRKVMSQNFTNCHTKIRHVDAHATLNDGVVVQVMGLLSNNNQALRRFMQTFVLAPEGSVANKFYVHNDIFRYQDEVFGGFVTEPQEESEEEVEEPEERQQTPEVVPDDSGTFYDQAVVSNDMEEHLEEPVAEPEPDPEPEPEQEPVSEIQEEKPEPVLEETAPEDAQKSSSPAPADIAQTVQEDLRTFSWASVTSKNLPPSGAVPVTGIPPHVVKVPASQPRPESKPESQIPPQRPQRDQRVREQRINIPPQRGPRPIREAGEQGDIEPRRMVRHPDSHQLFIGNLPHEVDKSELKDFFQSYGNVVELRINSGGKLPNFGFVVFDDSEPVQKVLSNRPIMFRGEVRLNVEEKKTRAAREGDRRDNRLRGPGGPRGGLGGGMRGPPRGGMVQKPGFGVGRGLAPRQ

[2] = target: T2, KSHV ORF57-Flag (wild type, pVM7) (Kaposi's sarcoma-associated herpesvirus (KSHV)) (UniProt Q2HR75); test: co-IP; lysates of HEK293 or HeLa cells transfected with Flag-tagged ORF57 wt or mt (arsenite-treated cells by the legend's title for A-C), digested with RNase A/T1; IP with mouse anti-Flag (Fig 5E left panel: rabbit anti-ORF57); blots for endogenous proteins; IP buffer 50 mM HEPES pH 7.5, 200 mM NaCl, overnight 4°C
T2 sequence: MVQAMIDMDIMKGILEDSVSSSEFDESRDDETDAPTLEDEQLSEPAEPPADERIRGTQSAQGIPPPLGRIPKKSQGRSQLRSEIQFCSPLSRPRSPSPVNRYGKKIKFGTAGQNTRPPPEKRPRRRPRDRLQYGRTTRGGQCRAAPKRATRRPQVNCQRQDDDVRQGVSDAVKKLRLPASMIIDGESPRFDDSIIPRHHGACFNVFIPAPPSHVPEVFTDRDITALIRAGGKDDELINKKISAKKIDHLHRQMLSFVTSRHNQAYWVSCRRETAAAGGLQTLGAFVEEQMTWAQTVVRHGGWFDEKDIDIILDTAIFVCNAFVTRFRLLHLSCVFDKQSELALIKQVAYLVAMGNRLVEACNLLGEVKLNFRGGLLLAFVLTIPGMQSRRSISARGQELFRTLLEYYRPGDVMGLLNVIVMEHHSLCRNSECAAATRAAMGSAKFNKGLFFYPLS

[3] = target: T3, KSHV ORF57 expressed from the virus in BCBL-1 cells with lytic infection (Kaposi's sarcoma-associated herpesvirus (KSHV), in BCBL-1 cells) (UniProt Q2HR75); test: co-IP; extracts of BCBL-1 cells induced with valproic acid for 24 h, RNase A/T1-treated; IP with polyclonal rabbit anti-ORF57, non-specific rabbit IgG as control; blots for endogenous PKR and PACT
T3 sequence: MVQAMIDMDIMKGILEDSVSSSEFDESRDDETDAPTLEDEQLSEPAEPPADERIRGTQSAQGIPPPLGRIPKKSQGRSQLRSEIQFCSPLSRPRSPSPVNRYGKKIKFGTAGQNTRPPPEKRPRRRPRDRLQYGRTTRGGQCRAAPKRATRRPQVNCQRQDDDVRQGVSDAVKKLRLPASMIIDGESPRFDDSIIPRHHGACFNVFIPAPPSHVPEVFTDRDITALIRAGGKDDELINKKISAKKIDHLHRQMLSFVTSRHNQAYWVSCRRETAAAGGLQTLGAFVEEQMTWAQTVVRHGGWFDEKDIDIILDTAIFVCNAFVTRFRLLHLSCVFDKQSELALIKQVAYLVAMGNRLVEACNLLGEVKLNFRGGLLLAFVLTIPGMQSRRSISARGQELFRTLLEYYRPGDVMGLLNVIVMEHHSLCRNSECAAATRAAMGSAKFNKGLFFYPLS

[4] = target: PACT-Δ1,2-Myc-Flag (deletion of RBM1 and RBM2) (UniProt O75569); test: co-IP; HEK293 extract with Myc-Flag-PACT or a deletion mutant mixed with lysate with untagged ORF57, RNase A/T1-digested; IP with anti-Flag M2 beads (Fig 6B, 6D)
[5] = target: PACT-Δ1-Myc-Flag (deletion of RBM1) (UniProt O75569); test: as above
[6] = target: PACT-Δ2-Myc-Flag (deletion of RBM2) (UniProt O75569); test: as above
[7] = target: T4, PACT-ΔPAD-Myc-Flag (Δ3, aa 1-239) (UniProt O75569); test: as above
T4 sequence: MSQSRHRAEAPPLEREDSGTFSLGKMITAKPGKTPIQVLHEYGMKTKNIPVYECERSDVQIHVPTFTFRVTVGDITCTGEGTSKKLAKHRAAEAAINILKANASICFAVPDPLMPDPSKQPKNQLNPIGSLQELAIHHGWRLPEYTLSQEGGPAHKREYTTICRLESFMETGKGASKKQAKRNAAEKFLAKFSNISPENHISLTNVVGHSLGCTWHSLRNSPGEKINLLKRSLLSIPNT

[8] = target: T5, full-length PACT-Myc-Flag (pPACT-FL) (UniProt O75569); test: as above
T5 sequence: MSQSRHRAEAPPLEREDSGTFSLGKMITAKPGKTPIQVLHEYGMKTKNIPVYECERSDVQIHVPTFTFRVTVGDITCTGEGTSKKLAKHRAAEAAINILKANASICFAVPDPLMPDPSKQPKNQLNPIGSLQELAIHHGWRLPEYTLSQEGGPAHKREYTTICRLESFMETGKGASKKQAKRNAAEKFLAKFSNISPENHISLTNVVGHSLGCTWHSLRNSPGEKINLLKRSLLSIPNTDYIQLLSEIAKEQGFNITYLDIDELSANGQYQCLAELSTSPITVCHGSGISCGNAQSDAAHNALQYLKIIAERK

[9] = target: PKR ΔRBM-Myc-Flag (aa 1-12/153-551) (UniProt P19525); test: co-IP; HEK293 extract with Myc-Flag-tagged PKR FL, ΔPK or ΔRBM mixed with extract with untagged ORF57, RNase A/T1-digested; IP with anti-Flag for PKR; blot anti-ORF57
[10] = target: full-length PKR-Myc-Flag (pPKR-FL) (UniProt P19525); test: as above
[11] = target: T6, PKR-activating protein (PACT), endogenous (human (endogenous in HEK293, HeLa, BCBL-1)) (UniProt O75569); test: co-IP; RNase A/T1-treated extracts of HEK293 cells transfected with empty vector, ORF57-wt-Flag or ORF57-mt-Flag (arsenite-treated); IP with anti-PACT; blots for ORF57 (anti-Flag) and PKR
T6 sequence: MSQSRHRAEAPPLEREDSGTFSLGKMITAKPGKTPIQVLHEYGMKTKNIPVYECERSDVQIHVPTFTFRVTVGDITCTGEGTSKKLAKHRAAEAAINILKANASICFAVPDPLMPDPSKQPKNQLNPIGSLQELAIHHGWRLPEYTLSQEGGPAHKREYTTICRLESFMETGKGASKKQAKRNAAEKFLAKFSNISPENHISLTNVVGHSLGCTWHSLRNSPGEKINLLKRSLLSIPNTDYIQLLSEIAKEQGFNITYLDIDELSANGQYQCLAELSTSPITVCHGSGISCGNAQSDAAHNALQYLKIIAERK

[12] = target: protein kinase R (PKR), endogenous (human (endogenous in HEK293, HeLa, BCBL-1)) (UniProt P19525); test: co-IP; RNase A/T1-treated extracts of HEK293 cells transfected with empty vector, ORF57-wt-Flag or ORF57-mt-Flag (arsenite-treated); IP with anti-PKR; blots for ORF57 (anti-Flag) and PACT
[13] = target: full-length PKR-Myc-Flag (pPKR-FL) (UniProt P19525); test: co-IP; extract of HEK293 cells with PKR-Myc-Flag, untreated or treated with arsenite for 30 min, mixed with HEK293 extract with ORF57-Flag, RNase A/T1-digested; pulled down with anti-Myc beads; blots anti-Flag, anti-pPKR (Thr 451), anti-ORF57

With “PACT-Δ1-Myc-Flag (deletion of RBM1) (from UniProt O75569 1-313)” the binding [1] was “binds”.

With “eIF4G1, endogenous (from UniProt Q04637 1-1599)” the binding [2] was “no binding”.

In the case of “PABPC1, endogenous (from UniProt P11940 1-636)”, the binding [2] is reported as “binds”.

In the case of “protein kinase R (PKR), endogenous (from UniProt P19525 1-551) (enzyme)”, the binding [3] is reported as “binds” and the binding [2] is reported as “binds”.

With “eIF2α, endogenous (from UniProt P05198 1-315)” the binding [2] was “no binding”.

With “G3BP1, endogenous (from UniProt Q13283 1-466)” the binding [2] was “no binding”.

For “PACT-Δ2-Myc-Flag (deletion of RBM2) (from UniProt O75569 1-313)”, the binding [1] was “binds”.

B1: KSHV ORF57, untagged (pcDNA-ORF57) (natural protein)
chain: MVQAMIDMDIMKGILEDSVSSSEFDESRDDETDAPTLEDEQLSEPAEPPADERIRGTQSAQGIPPPLGRIPKKSQGRSQLRSEIQFCSPLSRPRSPSPVNRYGKKIKFGTAGQNTRPPPEKRPRRRPRDRLQYGRTTRGGQCRAAPKRATRRPQVNCQRQDDDVRQGVSDAVKKLRLPASMIIDGESPRFDDSIIPRHHGACFNVFIPAPPSHVPEVFTDRDITALIRAGGKDDELINKKISAKKIDHLHRQMLSFVTSRHNQAYWVSCRRETAAAGGLQTLGAFVEEQMTWAQTVVRHGGWFDEKDIDIILDTAIFVCNAFVTRFRLLHLSCVFDKQSELALIKQVAYLVAMGNRLVEACNLLGEVKLNFRGGLLLAFVLTIPGMQSRRSISARGQELFRTLLEYYRPGDVMGLLNVIVMEHHSLCRNSECAAATRAAMGSAKFNKGLFFYPLS
notes: KSHV ORF57, untagged, expressed from pcDNA-ORF57; also called untagged ORF57; source: HEK293, transfected, in lysate
B1 was tested, and the binding [4] was “no binding”, the binding [5] was “binds” and the binding [6] was “binds”. For the same molecule, the binding [7] was “binds”, the binding [8] was “binds” and the binding [9] was “no binding”. For the same molecule, the binding [10] was “binds”.

B2: KSHV ORF57-Flag (wild type, pVM7) (natural protein)
chain: MVQAMIDMDIMKGILEDSVSSSEFDESRDDETDAPTLEDEQLSEPAEPPADERIRGTQSAQGIPPPLGRIPKKSQGRSQLRSEIQFCSPLSRPRSPSPVNRYGKKIKFGTAGQNTRPPPEKRPRRRPRDRLQYGRTTRGGQCRAAPKRATRRPQVNCQRQDDDVRQGVSDAVKKLRLPASMIIDGESPRFDDSIIPRHHGACFNVFIPAPPSHVPEVFTDRDITALIRAGGKDDELINKKISAKKIDHLHRQMLSFVTSRHNQAYWVSCRRETAAAGGLQTLGAFVEEQMTWAQTVVRHGGWFDEKDIDIILDTAIFVCNAFVTRFRLLHLSCVFDKQSELALIKQVAYLVAMGNRLVEACNLLGEVKLNFRGGLLLAFVLTIPGMQSRRSISARGQELFRTLLEYYRPGDVMGLLNVIVMEHHSLCRNSECAAATRAAMGSAKFNKGLFFYPLS
notes: KSHV ORF57 (mRNA transcript accumulation protein, MTA), wild type, expressed from pVM7; also called ORF57 wt; ORF57-wt-Flag; source: HEK293 or HeLa, transfected, in lysate
With B2 the binding [11] was “binds”, the binding [12] was “binds” and the binding [13] was “binds”.

B3: PKR-activating protein (PACT), endogenous (protein, UniProt O75569 1-313)
chain: MSQSRHRAEAPPLEREDSGTFSLGKMITAKPGKTPIQVLHEYGMKTKNIPVYECERSDVQIHVPTFTFRVTVGDITCTGEGTSKKLAKHRAAEAAINILKANASICFAVPDPLMPDPSKQPKNQLNPIGSLQELAIHHGWRLPEYTLSQEGGPAHKREYTTICRLESFMETGKGASKKQAKRNAAEKFLAKFSNISPENHISLTNVVGHSLGCTWHSLRNSPGEKINLLKRSLLSIPNTDYIQLLSEIAKEQGFNITYLDIDELSANGQYQCLAELSTSPITVCHGSGISCGNAQSDAAHNALQYLKIIAERK
For B3, the binding [3] was “binds” and the binding [2] was “binds”.

B4: full-length PACT-Myc-Flag (pPACT-FL) (protein, UniProt O75569 1-313)
chain: MSQSRHRAEAPPLEREDSGTFSLGKMITAKPGKTPIQVLHEYGMKTKNIPVYECERSDVQIHVPTFTFRVTVGDITCTGEGTSKKLAKHRAAEAAINILKANASICFAVPDPLMPDPSKQPKNQLNPIGSLQELAIHHGWRLPEYTLSQEGGPAHKREYTTICRLESFMETGKGASKKQAKRNAAEKFLAKFSNISPENHISLTNVVGHSLGCTWHSLRNSPGEKINLLKRSLLSIPNTDYIQLLSEIAKEQGFNITYLDIDELSANGQYQCLAELSTSPITVCHGSGISCGNAQSDAAHNALQYLKIIAERK
In the case of B4, the binding [1] is reported as “binds”.

B5: TIA-1, endogenous (protein, UniProt P31483 1-386)
chain: MEDEMPKTLYVGNLSRDVTEALILQLFSQIGPCKNCKMIMDTAGNDPYCFVEFHEHRHAAAALAAMNGRKIMGKEVKVNWATTPSSQKKDTSSSTVVSTQRSQDHFHVFVGDLSPEITTEDIKAAFAPFGRISDARVVKDMATGKSKGYGFVSFFNKWDAENAIQQMGGQWLGGRQIRTNWATRKPPAPKSTYESNTKQLSYDEVVNQSSPSNCTVYCGGVTSGLTEQLMRQTFSPFGQIMEIRVFPDKGYSFVRFNSHESAAHAIVSVNGTTIEGHVVKCYWGKETLDMINPVQQQNQIGYPQPYGQWGQWYGNAQQIGQYMPNGWQVPAYGMYGQAWNQQGFNQTQSSAPWMGPNYGVQPPQGQNGSMLPNQPSGYRVAGYETQ
In the case of B5, the binding [2] is reported as “no binding”.

B6: PACT-ΔPAD-Myc-Flag (Δ3, aa 1-239) (domain or fragment, UniProt O75569 1-239)
chain: MSQSRHRAEAPPLEREDSGTFSLGKMITAKPGKTPIQVLHEYGMKTKNIPVYECERSDVQIHVPTFTFRVTVGDITCTGEGTSKKLAKHRAAEAAINILKANASICFAVPDPLMPDPSKQPKNQLNPIGSLQELAIHHGWRLPEYTLSQEGGPAHKREYTTICRLESFMETGKGASKKQAKRNAAEKFLAKFSNISPENHISLTNVVGHSLGCTWHSLRNSPGEKINLLKRSLLSIPNT
For B6, the binding [1] was “binds”.

— paper PMC5679657, “KSHV inhibits stress granule formation by viral ORF57 blocking PKR activation” (PLoS Pathogens, 2017)
